Screen size: about 150,000 compounds; about 540 (0.36%) showed an effect of 50% or more. The list shows a part of the results.

This assay relates to Plasmodium falciparum. Briefly: Primary screen in NF54 nanoGlo assay, in single point, at 2uM, 72h; a lower Z score goes with more inhibition. It counts as functional, Erythrocyte. The settings on record: timepoint 72 hour.
The term % Inhibition denotes the change of the read-out against control, counted positive when it falls. With `O=C(C[C@H]1COCCN1C(=O)c1ccc(Cl)cn1)c1ccco1`, the “% Inhibition” value is on record as -13% and the Z score is listed as 1.71.
Take `O=C1COc2c(cccc2NC(=O)c2cccs2)N1`: the “% Inhibition” value came out at 2% and the Z score is -0.19.
Consider `CC1=NN(c2ccc(C)cc2)C(=O)C12Cc1ccccc1N1CCCCC12` (centres undefined), for which the “% Inhibition” value is -32% and the Z score worked out at 3.81.
The matching figures for `C[C@@]12CCCN1C(=O)N(c1cccc3[nH]ccc13)C2=O`: 2% and -0.45.
With `O=S(=O)(Nc1nc2ccccc2nc1Nc1ccc2cn[nH]c2c1)c1cc(F)ccc1F`, the “% Inhibition” value was -10% and the Z score was determined as 1.84.
The corresponding values for `CCn1nc(C)c(CNS(=O)(=O)c2cccs2)c1C` are -4% and 0.81.
The corresponding values for `CC1CN(S(=O)(=O)N2CCCC2CN)C(C)CO1` (centres undefined) are -1% and 0.13.
The corresponding values for `O=C(Nc1cccc(S(=O)(=O)N2CCOCC2)c1)c1cc[n+]([O-])cc1` are 0% and 0.01.
Consider `CC1(C)CO[C@@H](CCC(=O)N2CCC(CN3CCNC3=O)CC2)C1`, for which the “% Inhibition” value is on record as -3% and the Z score is 0.54.
On to `CC(C)(C)c1nnc(NCc2cccc3cn[nH]c23)o1`, for which the “% Inhibition” value is -13% and the Z score was determined as 1.37.
The corresponding values for `CCc1cc(C(=O)Nc2ccon2)cs1` are -16% and 2.03.
The corresponding values for `CCC(C)(NC(=O)C1CC12CCOCC2)c1ccccc1` (centres undefined) are 0% and 0.03.
The corresponding values for `Cc1cnccc1-c1cccc(C(=O)N2CCC2)c1` are 2% and -0.18.
As to `Cc1nc(-c2cccc(C(=O)NC[C@H]3COCCO3)c2)sc1C`, the “% Inhibition” value worked out at 7% and the Z score was -0.9.
Take `O=S(=O)(N[C@H]1CO[C@H]2[C@@H]1OC[C@@H]2n1cc(-c2ccccn2)nn1)c1cccs1`: the “% Inhibition” value is -11% and the Z score worked out at 1.53.
The corresponding values for `c1cncc(Cn2c3c(c4ccccc42)CNCCC3)c1` are 3% and -0.43.
The matching figures for `COc1ccc(OC)c2c1cc(C(=O)Nc1nccs1)n2C`: -9% and 1.1.
The corresponding values for `CC(C)CN(Cc1ccccn1)Cc1c[nH]cn1` are -22% and 2.03.
As to `CCOc1ccc(-c2ccc3c(c2)C(=O)NCC3)cc1OCC`, the “% Inhibition” value was -8% and the Z score was determined as 1.47.
As to `O=C(O)C12CCC(C(=O)Nc3ccccc3)(CC1)C2`, the “% Inhibition” value was -12% and the Z score was 1.17.
As to `O=C(Nc1cc(F)ccc1OC(F)F)NC1CCOC(C2CC2)C1` (centres undefined), the “% Inhibition” value came to 9% and the Z score is on record as -0.91.
The matching figures for `COc1ccc(C(=O)Nc2nc3n(n2)[C@H](c2ccccc2)CC(=O)N3)cc1`: -12% and 1.05.
The corresponding values for `CC[C@H]1c2cccn2CCN1C(=O)c1nc2n(n1)CCCN2` are 0% and 0.02.
The matching figures for `COC(=O)c1ccc(N2C[C@@H]3OC(=O)N(Cc4ccccc4OC)[C@@H]3C2)nc1`: 11% and -1.62.
`CCN1CCN(C2CCN(c3nc4nonc4nc3N3CCCCCC3)CC2)CC1`: the “% Inhibition” value was -3% and the Z score is given as 0.34.
The corresponding values for `O=C(c1ccc(CN2C(=O)CCn3nccc32)cc1)N1CCN(c2cccc(C(F)(F)F)c2)CC1` are 3% and -0.35.
The corresponding values for `Cc1nc(NC(=O)[C@H]2CC(=O)N(C(C)C)C2)sc1-c1ccccn1` are -10% and 0.91.
The corresponding values for `CCc1ncnc(N[C@H]2CC=CC[C@@H]2C(N)=O)c1F` are -13% and 1.62.
In the case of `Cc1cnc(CN(Cc2c(C)nn(C)c2C)CC(C)C)cn1`, the “% Inhibition” value is -10% and the Z score was found to be 1.4.
The matching figures for `OC[C@@H]1[C@@H](Cc2ccnc(-c3cccnc3)n2)[C@H](NCc2ccc(C(F)(F)F)cc2)C[C@H]1O`: -8% and 1.18.
For the molecule `CCN(CC)C(=O)[C@@H](NC(=O)c1ccccc1)C1CCN(S(=O)(=O)c2ccc(Cl)cc2)CC1`, the “% Inhibition” value is -7% and the Z score is given as 0.7.
The matching figures for `CCn1nc(N)c(Br)c1C`: 34% and -3.86.
The corresponding values for `CC1CCN(c2nc3c(c(Oc4ccc(F)c(F)c4)n2)CN(C(=O)NCc2ccccc2)CC3)CC1` are -26% and 2.56.
The matching figures for `Cc1cc(C(=O)N2CCc3[nH]cnc3C2)c2c(C)noc2n1`: -3% and 0.5.
As to `O=S(=O)(c1cccc(-c2nnc(-c3ccccc3Br)o2)c1)N1CCOCC1`, the “% Inhibition” value is reported as -9% and the Z score came to 1.58.
The corresponding values for `CN(C)c1nccc(CNC(=O)c2ccccc2)n1` are -4% and 0.73.
`CCN(CC(=O)Nc1c(F)cccc1F)c1cnc2ccccc2n1`: the “% Inhibition” value was -9% and the Z score was determined as 1.25.
Turning to `CCN1CCCN(C(=O)c2cc(F)ccc2F)CC1=O`, the “% Inhibition” value is given as -4% and the Z score was 0.8.
In the case of `COc1ccc(NC(=O)COc2ccc3c(c2)OCCO3)cc1OC`, the “% Inhibition” value was -26% and the Z score was determined as 3.11.
The corresponding values for `Cc1cc(CNC(=O)[C@@H]2CC[C@@H]2C(=O)O)ccc1-c1ccccc1` are 1% and -0.2.
The matching figures for `Cc1ccc(OCC(O)CN2CCN(CC(O)COc3ccc(C)cc3C)CC2)c(C)c1` (centres undefined): -14% and 1.78.
The matching figures for `Cc1ccccc1-n1c(=O)c2sccc2n(CC(=O)N2CCCc3ccccc32)c1=O`: -3% and 0.42.

The values above are taken from ChEMBL document CHEMBL4888484, “Replenishing the malaria drug discovery pipeline: Screening and hit evaluation of the MMV Hit Generation Library 1 (HGL1) against asexual blood stage Plasmodium falciparum ,using a nano luciferase reporter read-out” (2022).
